# PubChem BioAssay AID1030 (National Center for Advancing Translational Sciences (NCATS), 2008)
# Among all 220,000 compounds or so, about 16,000 (7.3%) were called active. The inconclusive results got no clear call from the source; some entries with a clear call stand among them for comparison. The call rests on the fitted dose curve; in most records, active means well fitted inhibition curve with a large enough effect (not every such curve was filed as active); inconclusive means small, poorly fitted or top-dose-only effect, or another doubt; inactive means no such curve, though single readings can be large or run the other way. Potencies of inconclusive entries are left out as doubtful fits.
# Molecular target: Aldehyde dehydrogenase 1A1 (Homo sapiens) (UniProt P00352)
# Sequence of UniProt P00352 (P00352 whole entry, looked up): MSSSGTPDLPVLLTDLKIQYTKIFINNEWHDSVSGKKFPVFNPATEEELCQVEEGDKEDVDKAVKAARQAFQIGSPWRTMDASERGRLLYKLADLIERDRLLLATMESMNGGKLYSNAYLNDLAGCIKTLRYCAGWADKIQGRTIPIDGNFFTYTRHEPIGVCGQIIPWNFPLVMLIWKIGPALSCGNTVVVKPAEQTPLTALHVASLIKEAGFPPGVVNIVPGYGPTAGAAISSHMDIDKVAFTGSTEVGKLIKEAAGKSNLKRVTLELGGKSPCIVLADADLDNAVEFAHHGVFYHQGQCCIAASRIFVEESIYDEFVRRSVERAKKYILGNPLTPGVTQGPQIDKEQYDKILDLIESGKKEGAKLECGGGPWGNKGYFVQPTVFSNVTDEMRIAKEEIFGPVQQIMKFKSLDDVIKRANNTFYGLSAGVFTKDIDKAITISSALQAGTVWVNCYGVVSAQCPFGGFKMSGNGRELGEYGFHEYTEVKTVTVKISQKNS
# Test: qHTS Assay for Inhibitors of Aldehyde Dehydrogenase 1 (ALDH1A1);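 on activity, negative = inhibition: plate controls were no enzyme wells and a reference inhibitor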
# Conditions: Purified ALDH1A1, NADH fluorescence, propionaldehyde substrate; series mostly up to 75.3 µM; activity, negative = inhibition: at the top concentration
# Potency means the concentration at half of the fitted maximal effect; tags describe the fitted curve by direction and shape.
SMILES,Potency,"activity, negative = inhibition"
COc1ccc(-n2c(Cc3cccn3C)nnc2SCC(=O)Nc2ccc(C)cc2C)cc1,"inconclusive [inhibitor, single point]",
Cc1ccc(C(=O)N(C)c2nnc(-c3ccncc3)s2)cc1,,inactive: -3%
Cc1ccc(CSCCNC(=O)CN(c2cccc([N+](=O)[O-])c2)S(C)(=O)=O)cc1,"inconclusive [inhibitor, single point]",
COC(=O)c1ccc(CSc2nnc(NCc3ccccc3)s2)o1,,inactive: -13.6%
O=C(CSc1nc2ccccc2[nH]1)NCc1ccco1,,inactive: 0.947%
COc1ccc(-n2c(C)cc(C(=O)CCl)c2C)cc1,active: 0.316 µM,
COc1ccc(NC(=S)NN(C)C(=S)Nc2ccc(OC)cc2)cc1,"inconclusive [inhibitor, single point]",
CCCCOC(=O)Nc1ccc(N(C)C)cc1,"inconclusive [inhibitor, single point]",
C/C(=N\Nc1ccccc1Cl)c1ccc(-n2ccnc2)cc1,"inconclusive [inhibitor, single point]",
Cc1ccc2nc(/C(C#N)=C\c3ccc(Oc4ccc([N+](=O)[O-])cn4)cc3)[nH]c2c1,"inconclusive [inhibitor, single point]",
CCCCCn1c(Sc2nc3ccccc3s2)nc2c1c(=O)[nH]c(=O)n2C,"inconclusive [inhibitor, partial curve]",
Cc1cc2c(c(=O)n1Cc1cccnc1)C(Cc1ccccc1)C(C#N)=C(N)O2 (centres undefined),"inconclusive [inhibitor, partial curve]",
CCOC(=O)N1CCC(N2C(=O)c3ccccc3C2Nc2ccccc2)CC1 (centres undefined),"inconclusive [inhibitor, single point]",
Cc1sc2nc(CN3CCCC3)nc(N3CCN(S(=O)(=O)c4cccs4)CC3)c2c1C,"inconclusive [inhibitor, single point]",
Cc1ccc(NC(=O)c2cccc(NC(=O)/C=C/c3ccco3)c2)cc1C,"inconclusive [inhibitor, partial curve]",
O=C(CN(Cc1ccc2c(c1)OCO2)C(=O)CSc1nc2ccccc2o1)NC1CCCCC1,"inconclusive [inhibitor, partial curve]",
O=[N+]([O-])c1ccccc1SNc1ccccn1,active: 20 µM,
COc1cc(C(=O)NNC(=S)NCc2ccco2)cc(OC)c1OC,,inactive: -4.02%
C=CCN(C(C)=O)C1CC(=O)N(c2ccc(OCCC)cc2)C1=O (centres undefined),"inconclusive [inhibitor, single point]",
CCOC(=O)c1[nH]cnc1N=Nc1c(O)ccc2ccccc12,,inactive: 0.87%
O=S(=O)(c1ccc(S(=O)(=O)N(Cc2cccs2)CC2CCCO2)cc1)N1CCCCC1 (centres undefined),active: 7.94 µM,
CCCN1C(=O)C(O)(C2COC(C)(C)CC2=O)c2ccccc21 (centres undefined),active: 0.355 µM,
CCSc1ncc(Cl)c(C(=O)Nc2ccccc2)n1,"inconclusive [inhibitor, single point]",
CC(C)OCCCNc1nc2c(-c3ccccc3)nnn2c2ccccc12,"inconclusive [inhibitor, partial curve]",
CCOC(=O)COc1ccc(-c2nnc(-c3ccccc3)o2)cc1,"inconclusive [inhibitor, single point]",

SMILES,Potency,"activity, negative = inhibition"
CCOc1cc(C#N)c(NC(=O)Cn2nnc3ccccc32)cc1OCC,"inconclusive [inhibitor, single point]",
N#CCC(=O)Nc1ccc(C(F)(F)F)cc1N1CCOCC1,,inactive: 1.75%
Cc1ccc(NC(=O)N2CCC(c3nc4c(nnn4Cc4cccc(Cl)c4)c(=O)[nH]3)CC2)cc1,,inactive: -16.9%
C=CCNc1nc(N2CCCCC2)c(C#N)c2c1CN(Cc1ccccc1)CC2,"inconclusive [inhibitor, single point]",
CC1(C)S[C@@H]2[C@H](NC(=O)[C@@H](N)c3ccccc3)C(=O)N2[C@H]1C(=O)O[C@H]1OC(=O)c2ccccc21,active: 2.82 µM,
COc1ccc(NC(=O)COC(C)=O)cc1Cl,,inactive: 6.75%
COc1cccc(C2NC(=O)c3ccccc3O2)c1OCc1ccccc1F (centres undefined),"inconclusive [inhibitor, single point]",
COc1ccccc1/C=C/C=N/N1CCN(Cc2ccccc2)CC1,"inconclusive [inhibitor, partial curve]",
O=C1c2ccccc2C(O)(Cc2ccccc2)N1CCCN1CCOCC1 (centres undefined),,inactive: -10%
CCC/C(=N\NC(=O)c1ccc(CSc2nncn2C)cc1)c1ccccc1,"inconclusive [inhibitor, single point]",
CCOC(=O)c1c(OCC)[nH]c2c1cc(O)c1ccccc12,"inconclusive [inhibitor, single point]",
CN1CCN(CCC(=O)N2c3ccccc3Sc3ccc(Cl)cc32)CC1,"inconclusive [inhibitor, single point]",
COc1ccccc1OCC(=O)NNC(=O)C(=O)N1CCCC1,,inactive: -1.76%
COc1ccccc1N1CCN(CCN(C(=O)c2ccc(F)cc2)c2ccccn2)CC1,"inconclusive [inhibitor, single point]",
COCCN=c1scc(C)n1/N=C/C1CC2C=CC1C2 (centres undefined),"inconclusive [inhibitor, single point]",
COc1cccc(/C=N/NC(=O)C(C)Sc2ccccc2)c1 (centres undefined),"inconclusive [inhibitor, single point]",
CSc1nc2ncc3c(n2n1)CC(C)(C)CC3=O,"inconclusive [inhibitor, single point]",
COC(=O)c1ccc(NC(=O)CSc2ccccc2)cc1,,inactive: 5%
CCCCn1nc2cc(C(=O)NCC34CC5CC(CC(C5)C3)C4)ccc2c1OC,"inconclusive [inhibitor, partial curve]",
COc1ccccc1C(=O)NC(=S)Nc1cc(C(=O)O)ccc1C,active: 14.1 µM,
CCOC(=O)c1ccoc1CSCC(=O)N1CCN(S(=O)(=O)c2ccc(C)cc2)CC1,"inconclusive [inhibitor, single point]",
CCC(=O)Nc1ccc2oc(-c3cccc(C)c3)nc2c1,"inconclusive [inhibitor, partial curve]",
COc1ccccc1OCCC(=O)NCc1ccc2c(c1)OCO2,,inactive: 4.48%
Cc1cc(C)nc(NC(=O)CSc2nc3cc(Cl)ccc3s2)n1,"inconclusive [inhibitor, single point]",
Cc1ccc(N2CCCn3c2nc2c3c(=O)n(CCN3CCOCC3)c(=O)n2C)cc1,,inactive: 0.065%

SMILES,Potency,"activity, negative = inhibition"
Cc1ccc(S(=O)(=O)NC(CC(=O)N2CCOCC2)c2ccco2)cc1 (centres undefined),active: 12.6 µM,
COc1ccc(C2NC(=O)c3sc4nc(C)c(C(C)=O)c(-c5ccc(Cl)cc5)c4c3N2)cc1 (centres undefined),"inconclusive [inhibitor, partial curve]",
Cc1cc(C(=O)N/N=C/c2cccnc2)cs1,,inactive: 2.85%
CCOC(=O)C1=CC(OC(CC)CC)C(NC(C)=O)C(N)C1 (centres undefined),,inactive: 6.8%
COCCC(=O)N1CCCC(C(=O)c2ccc(Oc3ccccc3)cc2)C1 (centres undefined),"inconclusive [inhibitor, single point]",
CSc1nc(N2CCCC2)c2c(c1C#N)CC(C)(C)OC2,"inconclusive [inhibitor, partial curve]",
CC(C)(C)NC(=O)CSc1nc2ccc(NC(=O)CSc3nnc(N)s3)cc2s1,,inactive: -1.77%
O=C1C2C3C=CC(C3)C2C(=O)N1c1ccc2ccccc2n1 (centres undefined),,inactive: -4.78%
COc1cc(/C=C/C(=O)Nc2ccncc2)cc(OC)c1OC,"inconclusive [inhibitor, partial curve]",
Nc1nc(Nc2cccc(Cl)c2)nc(NCc2ccco2)c1[N+](=O)[O-],,inactive: 0.796%
CCCN1C(=O)c2cc(C(=O)NCc3ccc(OC)cc3)ccc2C1O (centres undefined),"inconclusive [inhibitor, single point]",
Cc1nc2oc(C(=O)c3ccc(Br)cc3)c(N)c2c2c1COC(C)(C)C2,"inconclusive [inhibitor, partial curve]",
CCNC(=S)N(CCc1c(C)[nH]c2ccc(C)cc12)Cc1ccco1,"inconclusive [inhibitor, single point]",
Cc1ccccc1C(=O)NN1C(=O)CSC1=S,,inactive: 5.39%
CN(C)CCN1C(=O)c2oc3ccccc3c(=O)c2C1c1ccccc1 (centres undefined),"inconclusive [inhibitor, single point]",
COc1cccc(/C=N/NC(=O)c2cc3c(OC)c(OC)ccc3[nH]2)c1OC,"inconclusive [inhibitor, partial curve]",
CC(C)(C)c1ccc(OCC(=O)NNC(=O)c2cccnc2)cc1,,inactive: 5.84%
Cc1cc(C)cc(C(=O)NC(=S)Nc2ccc(-c3cc4ccccc4oc3=O)cc2)c1,"inconclusive [inhibitor, single point]",
O=C(NC1CCCCC1NC(=O)c1cccs1)c1cccs1 (centres undefined),,inactive: 9.06%
Cc1cccc(N(CC(=O)O)CC(=O)O)c1,,inactive: 5.59%
O=C(NCc1ccccc1)c1ccc2c(=O)n(CC3CCCO3)c(=S)[nH]c2c1 (centres undefined),active: 2.82 µM,
Cc1sc2c(=O)n3c(nc2c1C(=O)NCCCN1CCOCC1)CCCCC3,"inconclusive [inhibitor, single point]",
COc1cc2c(cc1OC)C(C)=NCC2,"inconclusive [inhibitor, partial curve]",
COCCN1C=C(C(=O)OC)C(c2ccccc2C(F)(F)F)C(C(=O)OC)=C1,"inconclusive [inhibitor, partial curve]",
